# Measurements from the supplement of paper PMC8728848.
# Some of the results follow.
# B1: Mg3lysM (Mycosphaerella graminicola) (protein)
# chain: APQNPPTSCSAAPQPTGTGSPGTVCGSTTFTNYTVKAGDTLGAIAKQYNSGVCDIAKVNGIDNPDYIKPDQVLSIPANCVTPDNTSCVKPVPVITNTCVLGVGSTYTVKSGDSFSAIATSFNITLASLEARNPQIPNYDLIFPGQVINTPLCPNSVCDSIGTYVIESGDIFYNLAQSNNVTVGQLESLNVNVNVTDIHPGDIIILPHNCHNITASA
# What was measured:
# Assay in all cases: glycan array binding signal (z-score within array); higher = stronger binding
# Settings in all cases: glycan notation: IUPAC condensed, linker removed
# [1] = biological target: Gal(b1-3)GlcNAc(b1-2)Man(a1-3)[Gal(b1-3)GlcNAc(b1-2)Man(a1-6)]Man(b1-4)GlcNAc(b1-4)[Fuc(a1-6)]GlcNAc
# Method in brief: (§1)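 The binding signal is a Z-score computed within each array. Data were drawn from 3228 arrays in the Consortium for Functional Glycomics database, restricted to those with a known protein sequence. Scores were averaged over arrays of the same protein sequence at different concentrations or buffers, and over linkers, and negative values can be taken as non-binding.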
# [2] = biological target: Gal(b1-3)GlcNAc(b1-2)Man(a1-3)[GlcNAc(b1-4)][Gal(b1-3)GlcNAc(b1-2)Man(a1-6)]Man(b1-4)GlcNAc(b1-4)GlcNAc
# Method in brief: as §1
# [3] = biological target: Gal(b1-3)GlcNAc(b1-2)[Gal(b1-3)GlcNAc(b1-6)]Man(a1-6)[Gal(b1-3)GlcNAc(b1-2)Man(a1-3)]Man(b1-4)GlcNAc(b1-4)GlcNAc
# Method in brief: as §1
# [4] = biological target: Gal(b1-3)GlcNAc(b1-3)Gal(b1-3)GlcNAc
# Method in brief: as §1
# [5] = biological target: Gal(b1-3)GlcNAc(b1-3)Gal(b1-4)Glc
# Method in brief: as §1
# [6] = biological target: Gal(b1-3)GlcNAc(b1-3)Gal(b1-4)GlcNAc
# Method in brief: as §1
# [7] = biological target: Gal(b1-3)GlcNAc(b1-3)Gal(b1-4)GlcNAc(b1-2)Man(a1-3)[Gal(b1-3)GlcNAc(b1-3)Gal(b1-4)GlcNAc(b1-2)Man(a1-6)]Man(b1-4)GlcNAc(b1-4)GlcNAc
# Method in brief: as §1
# [8] = biological target: Gal(b1-3)GlcNAc(b1-3)Gal(b1-4)GlcNAc(b1-2)[Gal(b1-3)GlcNAc(b1-3)Gal(b1-4)GlcNAc(b1-6)]Man(a1-6)[Gal(b1-3)GlcNAc(b1-3)Gal(b1-4)GlcNAc(b1-2)Man(a1-3)]Man(b1-4)GlcNAc(b1-4)[Fuc(a1-6)]GlcNAc
# Method in brief: as §1
# [9] = biological target: Gal(b1-3)GlcNAc(b1-3)Gal(b1-4)GlcNAc(b1-3)Gal(b1-4)GlcNAc(b1-2)[Gal(b1-3)GlcNAc(b1-3)Gal(b1-4)GlcNAc(b1-3)Gal(b1-4)GlcNAc(b1-6)]Man(a1-6)[Gal(b1-3)GlcNAc(b1-3)Gal(b1-4)GlcNAc(b1-3)Gal(b1-4)GlcNAc(b1-2)Man(a1-3)]Man(b1-4)GlcNAc(b1-4)[Fuc(a1-6)]GlcNAc
# Method in brief: as §1
# [10] = biological target: Gal(b1-3)GlcNAc(b1-3)Gal(b1-4)GlcNAc(b1-6)[Gal(b1-3)GlcNAc(b1-3)]Gal(b1-4)Glc
# Method in brief: as §1
# [11] = biological target: Gal(b1-3)GlcNAc(b1-3)Gal(b1-4)[Fuc(a1-3)]GlcNAc
# Method in brief: as §1
# [12] = biological target: Gal(b1-3)GlcNAc(b1-3)Gal(b1-4)[Fuc(a1-3)]GlcNAc(b1-6)[Gal(b1-3)GlcNAc(b1-3)]Gal(b1-4)Glc
# Method in brief: as §1
# [13] = biological target: Gal(b1-3)GlcNAc(b1-3)GalNAc
# Method in brief: as §1
# [14] = biological target: Gal(b1-3)GlcNAc(b1-6)Gal(b1-4)GlcNAc
# Method in brief: as §1
# [15] = biological target: Gal(b1-3)GlcNAc(b1-6)GalNAc
# Method in brief: as §1
# [16] = biological target: Gal(b1-3)GlcNAc(b1-6)[Gal(b1-3)]GalNAc
# Method in brief: as §1
# Gal(b1-3)GlcNAc6S = biological target: Gal(b1-3)GlcNAc6S
# Method in brief: as §1
# [17] = biological target: Gal(b1-3)[Fuc(a1-4)]GlcNAc
# Method in brief: as §1
# [18] = biological target: Gal(b1-3)[Fuc(a1-4)]GlcNAc(b1-2)Man
# Method in brief: as §1
# [19] = biological target: Gal(b1-3)[Fuc(a1-4)]GlcNAc(b1-2)Man(a1-3)[Gal(b1-3)[Fuc(a1-4)]GlcNAc(b1-2)Man(a1-6)]Man(b1-4)GlcNAc(b1-4)[Fuc(a1-6)]GlcNAc
# Method in brief: as §1
# [20] = biological target: Gal(b1-3)[Fuc(a1-4)]GlcNAc(b1-3)Gal(b1-3)[Fuc(a1-4)]GlcNAc
# Method in brief: as §1
# [21] = biological target: Gal(b1-3)[Fuc(a1-4)]GlcNAc(b1-3)Gal(b1-4)[Fuc(a1-3)]GlcNAc
# Method in brief: as §1
# [22] = biological target: Gal(b1-3)[Fuc(a1-4)]GlcNAc(b1-6)GalNAc
# Method in brief: as §1
# [23] = biological target: Gal(b1-3)[GlcNAc(b1-6)]GalNAc
# Method in brief: as §1
# [24] = biological target: Gal(b1-3)[Neu5Ac(a2-6)]GalNAc
# Method in brief: as §1
# [25] = biological target: Gal(b1-3)[Neu5Ac(a2-6)]GlcNAc(b1-4)Gal(b1-4)Glc
# Method in brief: as §1
# [26] = biological target: Gal(b1-3)[Neu5Ac(b2-6)]GalNAc
# Method in brief: as §1
# Gal(b1-4)Gal = biological target: Gal(b1-4)Gal
# Method in brief: as §1
# [27] = biological target: Gal(b1-4)GalNAc(a1-3)[Fuc(a1-2)]Gal(b1-4)GlcNAc
# Method in brief: as §1
# [28] = biological target: Gal(b1-4)GalNAc(b1-3)[Fuc(a1-2)]Gal(b1-4)GlcNAc
# Method in brief: as §1
# Gal(b1-4)Glc = biological target: Gal(b1-4)Glc
# Method in brief: as §1
# Gal(b1-4)Glc6S = biological target: Gal(b1-4)Glc6S
# Method in brief: as §1
# Gal(b1-4)GlcNAc = biological target: Gal(b1-4)GlcNAc
# Method in brief: as §1
# [29] = biological target: Gal(b1-4)GlcNAc(a1-6)Gal(b1-4)GlcNAc
# Method in brief: as §1
# Gal(b1-4)GlcNAc(b1-2)Man = biological target: Gal(b1-4)GlcNAc(b1-2)Man
# Method in brief: as §1
# [30] = biological target: Gal(b1-4)GlcNAc(b1-2)Man(a1-3)Man(b1-4)GlcNAc(b1-4)GlcNAc
# Method in brief: as §1
# [31] = biological target: Gal(b1-4)GlcNAc(b1-2)Man(a1-3)[Gal(b1-4)GlcNAc(b1-2)Man(a1-6)]Man(b1-4)GlcNAc(b1-4)GlcNAc
# Method in brief: as §1
# [32] = biological target: Gal(b1-4)GlcNAc(b1-2)Man(a1-3)[Gal(b1-4)GlcNAc(b1-2)Man(a1-6)]Man(b1-4)GlcNAc(b1-4)[Fuc(a1-6)]GlcNAc
# Method in brief: as §1
# [33] = biological target: Gal(b1-4)GlcNAc(b1-2)Man(a1-3)[Gal(b1-4)GlcNAc(b1-2)Man(a1-6)][Gal(b1-4)GlcNAc(b1-4)]Man(b1-4)GlcNAc(b1-4)[Fuc(a1-6)]GlcNAc
# Method in brief: as §1
# [34] = biological target: Gal(b1-4)GlcNAc(b1-2)Man(a1-3)[Gal(b1-4)GlcNAc(b1-2)Man(a1-6)][GlcNAc(b1-4)]Man(b1-4)GlcNAc(b1-4)[Fuc(a1-6)]GlcNAc
# Method in brief: as §1
# [35] = biological target: Gal(b1-4)GlcNAc(b1-2)Man(a1-3)[GlcNAc(b1-2)Man(a1-6)]Man(b1-4)GlcNAc(b1-4)GlcNAc
# Method in brief: as §1
# [36] = biological target: Gal(b1-4)GlcNAc(b1-2)Man(a1-3)[GlcNAc(b1-4)][Gal(b1-4)GlcNAc(b1-2)Man(a1-6)]Man(b1-4)GlcNAc(b1-4)GlcNAc
# Method in brief: as §1
# [37] = biological target: Gal(b1-4)GlcNAc(b1-2)Man(a1-3)[Man(a1-6)]Man(b1-4)GlcNAc(b1-4)GlcNAc
# Method in brief: as §1
# [38] = biological target: Gal(b1-4)GlcNAc(b1-2)Man(a1-6)Man(b1-4)GlcNAc(b1-4)GlcNAc
# Method in brief: as §1
# [39] = biological target: Gal(b1-4)GlcNAc(b1-2)Man(a1-6)[GlcNAc(b1-2)Man(a1-3)]Man(b1-4)GlcNAc(b1-4)GlcNAc
# Method in brief: as §1
binder,measurement,setting,value
B1,glycan array binding signal (z-score),[1],-0.097
same,glycan array binding signal (z-score),[2],-0.136
same,glycan array binding signal (z-score),[3],-0.059
same,glycan array binding signal (z-score),[4],-0.101
same,glycan array binding signal (z-score),[5],-0.065
same,glycan array binding signal (z-score),[6],-0.056
same,glycan array binding signal (z-score),[7],-0.11
same,glycan array binding signal (z-score),[8],0.063
same,glycan array binding signal (z-score),[9],0.15
same,glycan array binding signal (z-score),[10],-0.125
same,glycan array binding signal (z-score),[11],-0.157
same,glycan array binding signal (z-score),[12],0.02
same,glycan array binding signal (z-score),[13],-0.112
same,glycan array binding signal (z-score),[14],-0.046
same,glycan array binding signal (z-score),[15],-0.099
same,glycan array binding signal (z-score),[16],-0.022
same,glycan array binding signal (z-score),Gal(b1-3)GlcNAc6S,-0.048
same,glycan array binding signal (z-score),[17],-0.067
same,glycan array binding signal (z-score),[18],-0.155
same,glycan array binding signal (z-score),[19],-0.015
same,glycan array binding signal (z-score),[20],-0.091
same,glycan array binding signal (z-score),[21],-0.07
same,glycan array binding signal (z-score),[22],-0.127
same,glycan array binding signal (z-score),[23],0.021
same,glycan array binding signal (z-score),[24],-0.091
same,glycan array binding signal (z-score),[25],-0.068
same,glycan array binding signal (z-score),[26],-0.03
same,glycan array binding signal (z-score),Gal(b1-4)Gal,-0.148
same,glycan array binding signal (z-score),[27],-0.068
same,glycan array binding signal (z-score),[28],-0.137
same,glycan array binding signal (z-score),Gal(b1-4)Glc,-0.084
same,glycan array binding signal (z-score),Gal(b1-4)Glc6S,-0.028
same,glycan array binding signal (z-score),Gal(b1-4)GlcNAc,-0.075
same,glycan array binding signal (z-score),[29],-0.191
same,glycan array binding signal (z-score),Gal(b1-4)GlcNAc(b1-2)Man,-0.039
same,glycan array binding signal (z-score),[30],-0.065
same,glycan array binding signal (z-score),[31],-0.033
same,glycan array binding signal (z-score),[32],-0.083
same,glycan array binding signal (z-score),[33],-0.121
same,glycan array binding signal (z-score),[34],-0.225
same,glycan array binding signal (z-score),[35],-0.102
same,glycan array binding signal (z-score),[36],-0.082
same,glycan array binding signal (z-score),[37],-0.041
same,glycan array binding signal (z-score),[38],-0.091
same,glycan array binding signal (z-score),[39],-0.074
